Test results from PubChem BioAssay AID1476 (National Center for Advancing Translational Sciences (NCATS), 2009).
Hit rate of the full screen: of about 200,000 compounds, about 4,500 (2.2%) were called active. Inconclusive results, whose numbers are uncertain, are shown with a selection of clear calls. The call rests on the fitted dose curve; in most records, active means well fitted inhibition curve with a large enough effect; inconclusive means small, poorly fitted or top-dose-only effect, or effect the other way; inactive means flat fitted curve, though single readings scatter. Potencies of inconclusive entries are doubtful fits and often do not repeat.

target: Cruzipain (Trypanosoma cruzi) (UniProt P25779); test: qHTS Assay for Promiscuous and Specific Inhibitors of Cruzain (without detergent); settings: purified cruzain, Z-FR-AMC fluorescence, no detergent; further: nearly all actives have a fitted effect of over 40% in size;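 on max response, negative = inhibition: plate controls were enzyme without inhibitor for no effect and buffer without enzyme for full effect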
Chain of UniProt P25779 (P25779 whole entry, looked up): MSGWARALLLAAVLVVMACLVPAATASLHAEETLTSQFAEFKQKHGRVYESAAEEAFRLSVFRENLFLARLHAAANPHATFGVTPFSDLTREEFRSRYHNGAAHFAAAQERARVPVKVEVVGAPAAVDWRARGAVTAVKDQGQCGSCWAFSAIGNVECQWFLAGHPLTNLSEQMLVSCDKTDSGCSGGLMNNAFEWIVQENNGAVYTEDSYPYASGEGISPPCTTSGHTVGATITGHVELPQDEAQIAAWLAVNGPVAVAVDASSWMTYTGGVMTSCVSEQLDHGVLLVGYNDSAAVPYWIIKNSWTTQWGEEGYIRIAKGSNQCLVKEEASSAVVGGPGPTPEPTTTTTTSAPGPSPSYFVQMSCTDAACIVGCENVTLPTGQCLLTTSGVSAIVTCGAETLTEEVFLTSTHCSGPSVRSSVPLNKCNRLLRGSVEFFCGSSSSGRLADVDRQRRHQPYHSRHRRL
How it was run: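 Detergent-free condition (0.00005% Triton X-100) in acetate buffer pH 5.5 with DTT. 1.5 nM enzyme and compound were pre-mixed 15 min, then 2 uM Z-FR-AMC substrate added; reaction progress from fluorescence change between first and third reads (60 s).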
Potency means the concentration at half of the fitted maximal effect; tags describe the fitted curve by direction and shape.

Structure (SMILES) | max response, negative = inhibition | Potency
CCCOc1ccccc1-c1nc(SCC(=O)c2ccccc2)n[nH]1 | inactive: -17.4% | –
Cc1ccc(-c2cc(NC(=O)c3ccccc3Cl)on2)cc1 | – | inconclusive: 31.6 µM [inhibitor, single point]
CCOC(=O)N1CCN(C(=O)c2ccc3c(c2)N(Cc2ccccc2F)C(=O)c2ccccc2S3=O)CC1 (stereo not given) | – | inconclusive: 39.8 µM [activator, single point]
C=CCNC(=O)c1ccc(-c2nc(-c3ccc(Cl)c(Cl)c3)cs2)cc1 | – | active: 20 µM
N#Cc1cc([N+](=O)[O-])ccc1Oc1cccc(/C=N/NC(=O)c2ccc(Cl)cc2)c1 | – | active: 20 µM
CN(CC(=O)N1CC=C(c2ccccc2)CC1)S(=O)(=O)c1ccc2c(c1)c(=O)n(C)c(=O)n2C | – | inconclusive: 39.8 µM [activator, single point]
CCc1ccccc1Nc1cc(C(=O)NCc2ccc(C)cc2)c2ccccc2n1 | – | inconclusive: 39.8 µM [inhibitor, single point]
CCOc1ccc2c(c1)c1nnc(SCC3CCCO3)nc1n2C (stereo not given) | – | inconclusive: 39.8 µM [activator, single point]
CC(=O)N1CCCc2cc(S(=O)(=O)N3CCC(C(=O)N(Cc4ccccc4)C(C)C)CC3)ccc21 | – | inconclusive: 39.8 µM [activator, single point]
CCOC(=O)C1CCN(S(=O)(=O)c2cc(-c3onc(C)c3C)ccc2C)CC1 | – | inconclusive: 39.8 µM [activator, single point]
O=C(Nc1ccc(Cl)cc1)Nc1nnc(SCc2ccc(Cl)cc2)s1 | – | active: 7.94 µM
COc1ccc([C@@H](Nc2ncccn2)c2cc3c(cc2O)OCO3)cc1 | inactive: 18.9% | –
Cc1cccc(C)c1NC(=O)CSc1nnc(-c2ccco2)c(-c2ccco2)n1 | inactive: -18.2% | –
COc1ccc(/C=C/C(=O)Nc2cc(S(=O)(=O)N3CCCCC3)ccc2N2CCCCC2)cc1OC | inactive: -27.5% | –
CN1CCN(CCNC(=O)c2cnn(-c3ccc(Cl)cc3)c2C2CCN(C(=O)OC(C)(C)C)CC2)CC1 | – | inconclusive: 39.8 µM [activator, single point]
CN(c1ccc(C(=O)NCc2ccccn2)cc1)S(C)(=O)=O | inactive: -4.77% | –
CN(C(=O)c1cnc(N2CCN(c3ncccn3)CC2)c2ccccc12)c1ccc(Cl)cc1 | – | inconclusive: 39.8 µM [activator, single point]
COc1cc(C(=O)OCC(=O)Nc2ccc3c(c2)OC(F)(F)O3)ccc1OCc1c(C)noc1C | – | inconclusive: 12.6 µM [activator, partial curve]
Cc1ccc(CNC(=O)c2cnc3c(-c4ccc(F)cc4)c(C)nn3c2C)o1 | – | inconclusive: 25.1 µM [activator, single point]
Cc1ccc2c(c1)c1ncnc(N3CCC4(CC3)OCCO4)c1n2C | – | inconclusive: 39.8 µM [activator, single point]
COc1ccc(-c2nc(NC(=O)c3cc(C(C)(C)C)nn3C)sc2C)cc1 | – | inconclusive: 39.8 µM [inhibitor, single point]
Cc1nc2nc(CNC(=O)c3cccc(F)c3)nn2c(C)c1CCC(=O)Nc1cccc(Cl)c1 | – | inconclusive: 39.8 µM [activator, single point]

Structure (SMILES) | max response, negative = inhibition | Potency
CCSc1nc2ccccc2c(OCc2ccccc2Cl)c1C(=O)OC | – | inconclusive: 31.6 µM [inhibitor, single point]
COc1cccc(C(=O)N(Cc2nc(-c3ccc(Cl)cc3)no2)C(C)C)c1OC | – | inconclusive: 39.8 µM [activator, single point]
COc1ccc(NC(=O)c2nc(-c3ccc(C)cc3)n3c2CCCCC3)cc1 | inactive: -27.7% | –
O=C1NC(=O)N(Cc2ccco2)C(=O)/C1=C/c1cccn1CCOc1ccccc1Cl | – | inconclusive: 15.8 µM [inhibitor, single point]
CC(=O)Nc1ccccc1-c1nc2ccccc2nc1OCC(=O)c1ccc(Br)cc1 | – | inconclusive: 39.8 µM [activator, single point]
O=C1c2[nH]nc(-c3ccc(F)cc3)c2C(c2ccccc2F)N1c1ccccc1 (stereo not given) | – | inconclusive: 39.8 µM [inhibitor, single point]
CSc1ncc2c(n1)-c1ccccc1N(Cc1ccccc1)S2(=O)=O | inactive: -10.1% | –
CSc1ccc(CCNC(=O)CCCn2c(=O)c3cccn3c3ccccc32)cc1 | – | inconclusive: 20 µM [activator, single point]
Cc1cc2oc(=O)cc(Cn3nnc(-c4ccc(Cl)cc4)n3)c2cc1C(C)C | – | inconclusive: 39.8 µM [inhibitor, single point]
O=C(O)c1cnc(-c2ccccc2)nc1Sc1ccc(Cl)cc1Cl | – | inconclusive: 31.6 µM [activator, single point]
Cc1ccc2ncc3c(-c4ccc(F)cc4)nn(CC(=O)Nc4ccccc4C)c3c2c1 | inactive: 16.9% | –
Cc1cc2c(cc(C(=O)N3CCC(C(=O)N4CCCC4)CC3)n2Cc2c(F)cccc2Cl)o1 | – | inconclusive: 25.1 µM [activator, single point]
O=C(Nc1nnc(Cc2c[nH]c3ccccc23)s1)c1ccc(Cl)cc1Cl | – | active: 25.1 µM
CCc1ccc(-c2c(C)sc(NC(=O)C3CCC3)c2C#N)cc1 | – | active: 15.8 µM
Cc1ccc2c(Cl)cc(Cl)c(OCC(=O)Nc3cccc(S(=O)(=O)N(C)C)c3)c2n1 | – | active: 12.6 µM
CCOC(=O)c1ccc(NC(=O)CC(=O)Nc2ccc3nc4n(c(=O)c3c2)CCCCC4)cc1 | – | inconclusive: 39.8 µM [activator, single point]
Cc1cc(NC(=O)c2cc(-c3ccc4c(c3)OCO4)on2)n(-c2ccccc2)n1 | – | inconclusive: 12.6 µM [activator, partial curve]
CC1C(=O)CCC2[C@]1(C)CCC1[C@]2(C)CC[C@@]2(C)C3CC(C)(C)CC[C@]3(C)CC[C@@]12C (stereo not given in full) | inactive: 3.02% | –
CC(=O)NC1=C(C#N)C(c2ccccc2)c2c(ccc3ccccc23)O1 (stereo not given) | – | inconclusive: 39.8 µM [activator, single point]
N#CCSc1nc2ccc(N3CCCCC3)cc2c(=O)n1Cc1ccccc1 | – | active: 25.1 µM
CCOc1cc(N2CCOCC2)c(OCC)cc1NC(=O)COC(=O)c1cc(C)cc(C)c1 | – | inconclusive: 39.8 µM [activator, single point]
CC(C)CNC(=O)COC(=O)CNC(=O)c1cc(Cl)cc([N+](=O)[O-])c1 | – | active: 7.94 µM

Structure (SMILES) | max response, negative = inhibition | Potency
COC(=O)c1ccc(/C=C/C(=O)c2ccc(OC)c(OC)c2)cc1 | – | inconclusive: 39.8 µM [activator, single point]
CCOc1cc(/C=C(/C#N)C(=O)Nc2ccc(O)cc2)cc(Br)c1O | inactive: -13.4% | –
Cc1cccc(-c2nc3nc(C)cc(NC(C)c4ccccc4)n3n2)c1 (stereo not given) | inactive: 15.6% | –
CCN(CC)S(=O)(=O)c1ccc2[nH]cc(C(=O)NCCC3=CCCCC3)c(=O)c2c1 | – | inconclusive: 25.1 µM [activator, partial curve]
CN1C(=O)C2(c3ccccc31)N(c1cccc(C(F)(F)F)c1)C(=O)CS2(=O)=O (stereo not given) | – | active: 5.01 µM
C=CCn1c(O)c(N=NC(=O)c2ccccc2NS(=O)(=O)c2cccs2)c2ccccc21 | – | inconclusive: 39.8 µM [inhibitor, single point]
Oc1c(C(c2ccc(F)cc2)N2CCN(Cc3ccccc3)CC2)sc2nc(-c3ccco3)nn12 (stereo not given) | inactive: 1.08% | –
C=CCSc1nnc(-c2ccccc2N=Cc2c(C)[nH]n(-c3ccccc3)c2=O)c(=O)[nH]1 | – | inconclusive: 39.8 µM [activator, single point]
COc1cc(-c2nn3c(-c4cccc(C)c4)nnc3s2)cc(OC)c1OC | – | inconclusive: 20 µM [activator, single point]
Cc1nn(-c2nc3ccccc3s2)c(N)c1Sc1ccc(F)cc1 | – | active: 12.6 µM
COc1cc(CN(C(=O)c2ccccc2F)C2CCS(=O)(=O)C2)cc(OC)c1OC (stereo not given) | inactive: -3.8% | –
Cc1ccc2c(CC(=O)Nc3ccc(S(=O)(=O)N4CCCCC4)cc3)coc2c1C | – | active: 25.1 µM
COc1ccc(CCN(Cc2nc(-c3ccccc3)no2)Cc2nc(-c3ccccc3)no2)cc1OC | – | inconclusive: 1.26 µM [activator, single point]
COc1ccc(-c2nc(CS(=O)CC(=O)NCCc3ccc(Cl)cc3)c(C)o2)cc1OC (stereo not given) | – | inconclusive: 31.6 µM [activator, single point]
O=C(Cc1ccc2c(c1)OCCO2)N1CCN(S(=O)(=O)c2cccc(C(F)(F)F)c2)CC1 | – | inconclusive: 39.8 µM [activator, single point]
CCc1ccc(C2c3c(-c4ccccc4O)n[nH]c3C(=O)N2Cc2cccnc2)cc1 (stereo not given) | – | inconclusive: 39.8 µM [activator, single point]
O=C(NC1CCCC1)C(c1ccsc1)N(C(=O)Cc1cccs1)c1ccc(F)cc1 (stereo not given) | – | inconclusive: 39.8 µM [inhibitor, single point]
COC(=O)/C=C1/SC(=NC(=O)c2ccccc2)NC1=O | inactive: 0.915% | –
CC(C)Cn1c(-c2ccc(Cl)cc2)cnc1SCC(=O)N1CCOCC1 | – | inconclusive: 39.8 µM [activator, single point]
Cc1ccc2[nH]c(=O)c(CC=C(Cl)Cl)c(C)c2c1 | – | inconclusive: 39.8 µM [inhibitor, single point]
Cc1ccnc(NC(=S)NC(=O)/C=C/c2ccc(Cl)cc2)c1 | – | active: 3.98 µM
